Data reported in publication PMC11633528.
Results are given in words; binding and its absence hold for the method and conditions named. For some assays here: Binding seen in cells or lysates may run through a third protein. Some results given as binding are weak or reduced against the parent protein; the word gives no strength. For some assays here: Tags and fused reporters may be left off the sequences shown.

By UniProt entry, the sequences of proteins in these tests, tags left out. Where a name states a change or a piece, a line headed by the entry shows the natural chain unless it says otherwise.
UniProt P67809: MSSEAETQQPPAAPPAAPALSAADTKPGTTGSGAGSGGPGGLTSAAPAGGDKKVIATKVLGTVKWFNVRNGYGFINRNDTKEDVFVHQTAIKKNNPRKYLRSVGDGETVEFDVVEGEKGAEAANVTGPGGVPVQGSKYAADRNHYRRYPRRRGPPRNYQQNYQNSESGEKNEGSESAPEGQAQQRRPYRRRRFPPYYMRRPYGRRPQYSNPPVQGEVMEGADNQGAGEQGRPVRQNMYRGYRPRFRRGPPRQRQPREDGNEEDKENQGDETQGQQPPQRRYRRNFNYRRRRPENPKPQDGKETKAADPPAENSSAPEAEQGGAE
UniProt Q15717: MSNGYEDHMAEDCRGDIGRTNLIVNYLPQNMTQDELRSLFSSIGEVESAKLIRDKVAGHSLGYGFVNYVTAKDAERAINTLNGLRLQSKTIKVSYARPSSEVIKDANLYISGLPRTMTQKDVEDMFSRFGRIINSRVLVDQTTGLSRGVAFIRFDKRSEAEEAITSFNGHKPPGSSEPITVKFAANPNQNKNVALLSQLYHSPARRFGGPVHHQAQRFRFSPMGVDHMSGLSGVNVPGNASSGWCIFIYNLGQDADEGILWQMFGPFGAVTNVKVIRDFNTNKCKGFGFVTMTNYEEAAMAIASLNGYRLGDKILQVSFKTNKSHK

How the values were obtained:
[1] = molecular target: T1, HCP5‐132aa‐Flag (microprotein encoded by ORF15 of lncRNA HCP5), stably expressed in GC cells (human) (UniProt Q6MZN7); test: co-IP; sequential immunoprecipitation in GC cell lines
T1 sequence: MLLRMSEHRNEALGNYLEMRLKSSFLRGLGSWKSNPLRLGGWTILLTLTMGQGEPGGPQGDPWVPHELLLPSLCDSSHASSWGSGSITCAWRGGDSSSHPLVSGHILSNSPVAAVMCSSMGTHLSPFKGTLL

[2] = molecular target: Y‐box binding protein 1 (YBX1), endogenous in GC cells (human (endogenous in GC cell lines)) (UniProt P67809); test: as above
[3] = molecular target: Y‐box binding protein 1 (YBX1), endogenous in GC cells (human (endogenous in GC cell lines)) (UniProt P67809); test: proximity ligation; YBX1 with ELAVL1 in GC cells, control and HCP5‐132aa knockout
[4] = molecular target: Y‐box binding protein 1 (YBX1), endogenous in GC cells (human (endogenous in GC cell lines)) (UniProt P67809); test: co-IP; YBX1 with ELAVL1 in HCP5‐132aa stable knockout or overexpressing GC cell lines
[5] = molecular target: T1, HCP5‐132aa‐Flag (microprotein encoded by ORF15 of lncRNA HCP5), stably expressed in GC cells (human); test: co-IP; GC cells, IP lysis buffer, primary antibody overnight at 4 °C, Protein A/G beads, western blotting
[6] = molecular target: T1, HCP5‐132aa‐Flag (microprotein encoded by ORF15 of lncRNA HCP5), stably expressed in GC cells (human); test: proximity ligation; GC cells stably expressing HCP5‐132aa‐Flag; anti‐Flag mouse monoclonal and anti‐YBX1/ELAVL1 rabbit monoclonal; Duolink
[7] = molecular target: HA‐tagged full‐length YBX1 (UniProt P67809); test: co-IP; HEK‐293T co-transfected with YBX1 and ELAVL1 and increasing doses of HCP5‐132aa‐Flag
[8] = molecular target: T2, HCP5‐132aa C‐terminal region (67‐132aa), Flag‐tagged truncation mutant (human) (UniProt Q6MZN7); test: co-IP; HEK‐293T co-transfected with HA‐tagged YBX1‐CSD and Flag‐tagged HCP5‐132aa truncation mutants; IP with anti‐Flag antibody
T2 sequence: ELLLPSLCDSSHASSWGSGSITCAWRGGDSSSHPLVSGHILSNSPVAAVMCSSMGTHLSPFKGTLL

[9] = molecular target: T3, HCP5‐132aa N‐terminal region (1‐66aa), Flag‐tagged truncation mutant (human) (UniProt Q6MZN7); test: as above
T3 sequence: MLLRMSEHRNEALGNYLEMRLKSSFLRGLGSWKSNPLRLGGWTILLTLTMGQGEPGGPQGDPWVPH

[10] = molecular target: YBX1‐GST (UniProt P67809); test: pull-down; GST pull-down: purified GST‐tagged protein incubated with His‐tagged protein and GST resin, 4 °C, 3 h; washes with NETN buffer (20 mM Tris‐HCl pH 8.0, 200 mM NaCl, 0.5 mM EDTA, 0.5% NP‐40); western blotting; both purified
[11] = molecular target: HA‐tagged full‐length YBX1 (UniProt P67809); test: co-IP; HEK‐293T co-transfected with Flag‐tagged HCP5‐132aa and HA‐tagged full‐length YBX1 or YBX1 fragments; IP with anti‐HA antibody

“ELAVL1, endogenous in GC cells (from UniProt Q15717 1-326)” was tested, and the binding [1] was “binds”, the binding [2] was “binds” and the binding [3] was “binds”. For the same molecule, the binding [4] was “binds”, the binding [5] was “binds” and the binding [6] was “binds”.

“ELAVL1, transfected in HEK‐293T cells (from UniProt Q15717 1-326)” was tested, and the binding [7] was “binds”.

“HA‐tagged YBX1‐CSD (from UniProt P67809 61-125) (domain or fragment)” was tested, and the binding [8] was “binds” and the binding [9] was “no binding”.

With “Y‐box binding protein 1 (YBX1), endogenous in GC cells (from UniProt P67809 1-324)” the binding [1] was “binds”, the binding [5] was “binds” and the binding [6] was “binds”.

B1: HCP5‐132aa‐His (protein, UniProt Q6MZN7 1-132)
chain: MLLRMSEHRNEALGNYLEMRLKSSFLRGLGSWKSNPLRLGGWTILLTLTMGQGEPGGPQGDPWVPHELLLPSLCDSSHASSWGSGSITCAWRGGDSSSHPLVSGHILSNSPVAAVMCSSMGTHLSPFKGTLL
For B1, the binding [10] was “binds”.

B2: HCP5‐132aa‐Flag, transfected in HEK‐293T cells (protein, UniProt Q6MZN7 1-132)
chain: MLLRMSEHRNEALGNYLEMRLKSSFLRGLGSWKSNPLRLGGWTILLTLTMGQGEPGGPQGDPWVPHELLLPSLCDSSHASSWGSGSITCAWRGGDSSSHPLVSGHILSNSPVAAVMCSSMGTHLSPFKGTLL
In the case of B2, the binding [11] is reported as “binds”.
